This assay concerns DosRST pathway, CDC1551 (hspX′::GFP) reporter strain. As to the kind of experiment: microbe, parasite or virus in culture. The settings on record: Mycobacterium tuberculosis, Table 5, fluorescence inhibition, doses 200 μM to 0.328 μM. The assay is classed as cell-based.

The structures appear in SMILES notation.

`O=C(Nc1ccc(Cl)cc1)Nc1ccno1` [HC106F, 1-(4-chlorophenyl)-3-(1,2-oxazol-5-yl)urea]: the EC50 (in general, the concentration needed to bring the measured effect to its halfway point) was found to be 1330 nM.
